The record followed here is the supplement of paper PMC9446081.

About 220 (0.56%) of roughly 39,000 compounds showed activity. The list shows a part of the results.
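Also: static incubation at 37 °C against the wild-type strain, values averaged over two biological replicates.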

In the test the test system is Escherichia coli K-12 BW25113. The test can be described thus: relative growth (OD600 normalised to plate interquartile mean) (fraction); higher = less growth inhibition, active = 0.2 or less. To be noted: 50 µM; LB; incubation time: overnight (16-24 h).
For the compound `C[C@@H]1CN([C@@H](C)CO)C(=O)c2cc(NC(=O)Cn3cnnn3)ccc2O[C@H]1CN(C)S(=O)(=O)c1ccc(F)cc1`, the relative growth was inactive: 0.975.
Regarding `COc1ccc(C(=O)Nc2ccc(CN3C(=O)[C@]4(O[C@H](CC(=O)N5CCC[C@H]5CO)[C@@H]([Si](C)(C)c5ccc(OC)cc5)[C@@H]4C)c4ccccc43)cc2)cc1`, the relative growth was inactive: 1.02.
Turning to `COc1ccc(CN(C)C[C@H]2Oc3c(NC(=O)c4cc(C)nn4C)cccc3C(=O)N([C@H](C)CO)C[C@@H]2C)cc1`, the relative growth was inactive: 0.99.
On to `C[C@H](CO)N1C[C@H](C)[C@@H](CN(C)Cc2ccc(Cl)c(Cl)c2)OCCCC[C@H](C)Oc2ccc(NS(=O)(=O)c3cccs3)cc2C1=O`, for which the relative growth was inactive: 0.983.
Consider `C[C@H](CO)N1C[C@H](C)[C@H](CN(C)Cc2ccc(Cl)c(Cl)c2)Oc2ccc(NC(=O)C3CCCCC3)cc2C1=O`, for which the relative growth was inactive: 0.853.
Consider `C[C@H]1CN([C@@H](C)CO)C(=O)CCCn2nncc2CO[C@H]1CN(C)S(=O)(=O)c1ccc(Cl)cc1`, for which the relative growth was inactive: 0.996.
With `C[C@@H]1CN([C@@H](C)CO)C(=O)Cc2cc(NC(=O)CCC(F)(F)F)ccc2O[C@@H]1CN(C)Cc1ccc(C(=O)Nc2ccccc2N)cc1`, the relative growth was inactive: 1.02.
In the case of `C[C@H](CO)N1C[C@H](C)[C@@H](CN(C)C(=O)Nc2ccc(C(F)(F)F)cc2)Oc2ccc(NC(=O)CCC(F)(F)F)cc2C1=O`, the relative growth was inactive: 0.955.
Regarding `C[C@@H]1CN([C@H](C)CO)C(=O)Cc2cc(NC(=O)Nc3ccc(C(F)(F)F)cc3)ccc2O[C@@H]1CN(C)Cc1ccc(Oc2ccccc2)cc1`, the relative growth was inactive: 1.03.
For `Cc1ccccc1S(=O)(=O)N1C[C@H](O)COC[C@H]2O[C@H](CC(=O)N3CCOCC3)CC[C@@H]21`, the relative growth is inactive: 1.02.
With `C[C@@H](N)CCCC(C)(C)O`, the relative growth is inactive: 0.979.
As to `Cc1noc(C)c1S(=O)(=O)Nc1ccc2c(c1)C(=O)N([C@@H](C)CO)C[C@@H](C)[C@@H](CN(C)C)OCCCC[C@@H](C)O2`, the relative growth is inactive: 0.999.
On to `CC(C)NC(=O)Nc1ccc2c(c1)CC(=O)N([C@H](C)CO)C[C@@H](C)[C@H](CN(C)Cc1ccc3c(c1)OCO3)O2`, for which the relative growth is inactive: 1.01.
With `C[C@H](CO)N1C[C@H](C)[C@H](CN(C)S(=O)(=O)c2cccs2)Oc2ccc(NC(=O)CCCN(C)C)cc2C1=O`, the relative growth was inactive: 0.996.
Then `C[C@H]1CCCCO[C@H](CN(C)S(=O)(=O)c2ccccc2)[C@@H](C)CN([C@@H](C)CO)C(=O)c2cc(NC(=O)c3ccccc3)ccc2O1`, with inactive: 1.02.
On to `COc1ccc(S(=O)(=O)N[C@@H]2C=C[C@H](CC(=O)NCCc3ccncc3)O[C@H]2CO)cc1`, for which the relative growth is inactive: 1.
Then `O=C(C[C@H]1C[C@@H]2c3cc(NS(=O)(=O)c4ccc(F)cc4)ccc3O[C@@H]2[C@H](CO)O1)NCc1ccccc1F`, with inactive: 1.03; and `COCC(=O)Nc1ccc2c(c1)OC[C@@H](C)N(Cc1cccc(F)c1)C[C@@H](C)[C@@H](OC)CN(C)C2=O`, with inactive: 0.995.
As to `Cc1noc(C)c1NC(=O)N(C)C[C@@H]1OCCCC[C@@H](C)Oc2ccc(NC(=O)C3CCCCC3)cc2C(=O)N([C@@H](C)CO)C[C@@H]1C`, the relative growth is inactive: 0.946.
Take `Cc1ccc(CNc2ccc3c(c2)ncn3C2CCCCC2)cc1`: the relative growth was inactive: 0.961.
Take `Cc1ccc(S(=O)(=O)Nc2ccc3c(c2)C(=O)N([C@@H](C)CO)C[C@@H](C)[C@@H](CN(C)C(=O)C2CCCCC2)OCCCC[C@H](C)O3)cc1`: the relative growth was inactive: 1.
Consider `Cc1ccnc(-n2c(C)ccc2C)c1`, for which the relative growth was inactive: 1.
Take `CN1C(=O)c2cc(NC(=O)C3CCC3)ccc2OC[C@H]2O[C@@H](CC(=O)NCCc3ccncc3)CC[C@H]21`: the relative growth is inactive: 0.993.
Then `C[C@H](CO)N1C[C@H](C)[C@H](CN(C)S(=O)(=O)c2ccc(Cl)cc2)OCCCC[C@H](C)Oc2ccc(NC(=O)C3CCCCC3)cc2C1=O`, with inactive: 0.975; and `CO[C@H]1/C=C\O[C@@]2(C)Oc3c(C)c(O)c4c(O)c(c(/C=N/N=C/N5CCCCC5)c(O)c4c3C2=O)NC(=O)/C(C)=C\C=C/[C@H](C)[C@H](O)[C@@H](C)[C@@H](O)[C@@H](C)[C@H](OC(C)=O)[C@@H]1C`, with inactive: 0.65; and `CO[C@H]1CN(C)C(=O)c2cc(NC(=O)Nc3ccccc3F)ccc2OC[C@@H](C)N(CCC(F)(F)F)C[C@H]1C`, with inactive: 0.975.
`C[C@@H]1CCCCO[C@H](CN(C)CC2CCCCC2)[C@@H](C)CN([C@H](C)CO)C(=O)c2cc(NS(=O)(=O)c3ccc(F)cc3)ccc2O1`: the relative growth is inactive: 0.991.
With `C[C@@H]1CCCCO[C@@H](CN(C)C(=O)Nc2ccccc2)[C@@H](C)CN([C@H](C)CO)C(=O)c2cc(NC(=O)C3CCCCC3)ccc2O1`, the relative growth is inactive: 0.981.
Then `Cc1ccc(S(=O)(=O)Nc2ccc3c(c2)C(=O)N([C@@H](C)CO)C[C@@H](C)[C@H](CN(C)C(=O)Nc2ccc(C(F)(F)F)cc2)OCCCC[C@@H](C)O3)cc1`, with inactive: 1.01; and `O=C(c1cccnc1)N1C[C@@H]2[C@H](c3ccccc31)[C@H](CO)N2C(=O)CN1CCOCC1`, with inactive: 0.999; and `COc1ccc(S(=O)(=O)Nc2ccc3c(c2)C(=O)N([C@H](C)CO)C[C@@H](C)[C@@H](CN(C)S(=O)(=O)c2cccs2)O3)cc1`, with inactive: 0.999.
On to `C[C@H](CO)N1C[C@H](C)[C@H](CN(C)S(C)(=O)=O)Oc2ccc(NC(=O)CCC(F)(F)F)cc2CC1=O`, for which the relative growth was inactive: 1.04.
Turning to `O=C(CN1CCC2(CC1)OCCC[C@@H]2O)N1CCOCC1`, the relative growth was inactive: 1.01.
In the case of `C[C@@H]1CCCCO[C@H](CN(C)Cc2ccc(C(F)(F)F)cc2)[C@H](C)CN([C@H](C)CO)C(=O)c2cc(NC(=O)C3CCCCC3)ccc2O1`, the relative growth was inactive: 0.951.
Turning to `COc1ccc(NC(=O)N(C)C[C@@H]2Oc3ccc(NC(=O)C4CC4)cc3C(=O)N([C@@H](C)CO)C[C@H]2C)cc1`, the relative growth is inactive: 1.01.
Then `COc1ccc(S(=O)(=O)N(C)C[C@H]2Oc3ccc(NC(=O)CCCN(C)C)cc3C(=O)N([C@@H](C)CO)C[C@@H]2C)cc1`, with inactive: 0.998.
`O=S(=O)(NCC[C@@H]1CC[C@H](NS(=O)(=O)c2cccc(Cl)c2)[C@@H](CO)O1)c1cccc(F)c1`: the relative growth was inactive: 0.989.
Regarding `Cc1noc(C)c1NC(=O)Nc1ccc2c(c1)C(=O)N([C@@H](C)CO)C[C@H](C)[C@@H](CN(C)C(=O)Cc1ccccc1)OCCCC[C@H](C)O2`, the relative growth was inactive: 1.02.
`N=C1NC(=O)CS1`: the relative growth was inactive: 0.999.
For the compound `O=C(C[C@H]1C=C[C@H](NC(=O)c2cccnc2)[C@@H](CO)O1)NCCN1CCCCC1`, the relative growth is inactive: 1.02.
As to `C[C@@H]1CN([C@@H](C)CO)C(=O)Cc2cc(NS(C)(=O)=O)ccc2O[C@H]1CN(C)S(=O)(=O)c1cccs1`, the relative growth was inactive: 0.97.
Then `CC(=O)Nc1c(I)c(C(=O)N[C@@H]2[C@@H](O)[C@H](O)[C@@H](CO)O[C@@H]2O)c(I)c(N(C)C(C)=O)c1I`, with inactive: 0.969.
For the compound `Cc1noc(C)c1NC(=O)Nc1ccc2c(c1)C(=O)N([C@@H](C)CO)C[C@@H](C)[C@@H](CN(C)Cc1ccc(C(=O)O)cc1)OCCCC[C@@H](C)O2`, the relative growth was inactive: 1.01.
In the case of `CC(C)NC(=O)N(C)C[C@H]1Oc2ccc(NC(=O)c3ccncc3)cc2CC(=O)N([C@H](C)CO)C[C@@H]1C`, the relative growth is inactive: 0.955.
Take `C[C@@H]1CN([C@H](C)CO)C(=O)c2cc(C#CC3(O)CCCC3)cnc2O[C@H]1CN(C)C(=O)C1CCCCC1`: the relative growth is inactive: 1.02.
For the compound `CC(C)C[C@@H]1NC(=O)[C@@H]2C[C@H](C(=O)NCCCCCCN(C)C)[C@H](c3cccc(OCCO)c3)N2C1=O`, the relative growth was inactive: 1.01.
As for `C[C@H]1CN([C@@H](C)CO)C(=O)c2cc(NC(=O)Cn3cnnn3)ccc2O[C@H]1CN(C)Cc1ccc(C(F)(F)F)cc1`, the relative growth was inactive: 0.942.
As for `C[C@@H]1CCCCO[C@H](CN(C)C(=O)Nc2ccccc2)[C@@H](C)CN([C@@H](C)CO)C(=O)c2cc(NS(=O)(=O)c3ccccc3)ccc2O1`, the relative growth is inactive: 1.01.
As for `COc1ccc(NC(=O)Nc2ccc3c(c2)C(=O)N([C@H](C)CO)C[C@H](C)[C@H](CN(C)C(=O)CCC(F)(F)F)OCCCC[C@@H](C)O3)cc1`, the relative growth was inactive: 0.987.
Then `Cc1noc(C)c1S(=O)(=O)Nc1ccc2c(c1)CC(=O)N([C@@H](C)CO)C[C@H](C)[C@@H](CN(C)S(=O)(=O)c1c(C)noc1C)O2`, with inactive: 0.986; and `COc1ccc(-c2oc3cc(OC)c(OC)c(OC)c3c(=O)c2OC)cc1OC`, with inactive: 1.18; and `Cc1noc(C)c1S(=O)(=O)N(C)C[C@@H]1Oc2ccc(NS(C)(=O)=O)cc2CC(=O)N([C@H](C)CO)C[C@H]1C`, with inactive: 0.994.
For `C=CCOC(=O)[C@@H]1[C@H]2C(=O)O[C@H](c3ccccc3)[C@H](c3ccccc3)N2[C@H](c2ccc(OCCOC(=O)[C@H]3C[C@H]4C(=O)N[C@@H](CCCC[N+](C)(C)C)C(=O)N4[C@H]3c3ccc(O)cc3)cc2)[C@@]12C(=O)Nc1ccc(I)cc12`, the relative growth was inactive: 1.06.
`CO[C@@H]1CN(C)C(=O)c2cc(NC(=O)C3CCOCC3)ccc2OC[C@@H](C)N(C(=O)C2CCOCC2)C[C@H]1C`: the relative growth was inactive: 1.01.
Regarding `CCOC(=O)Nc1nc2ccccc2[nH]1`, the relative growth was inactive: 0.989.
`CCCC(=O)Nc1ccc2c(c1)C(=O)N(C)C[C@H](OC)[C@@H](C)CN(S(=O)(=O)c1cn(C)cn1)[C@@H](C)CO2`: the relative growth was inactive: 0.97.
For the compound `O=C(C[C@H]1C[C@@H]2c3cc(NC(=O)c4ccc5c(c4)OCO5)ccc3O[C@@H]2[C@H](CO)O1)NCc1ccc(Oc2ccccc2)cc1`, the relative growth is inactive: 1.
